# Results as given in the supplement of paper PMC3334620.
# In all, about 33,000 sequences were measured (“E-score (-0.5 to 0.5)”: median about -0.013, highest 2% from about 0.3 on). The list shows a part of the results.
# Target: T1, Msn1 (UniProt P22148)
# T1 sequence: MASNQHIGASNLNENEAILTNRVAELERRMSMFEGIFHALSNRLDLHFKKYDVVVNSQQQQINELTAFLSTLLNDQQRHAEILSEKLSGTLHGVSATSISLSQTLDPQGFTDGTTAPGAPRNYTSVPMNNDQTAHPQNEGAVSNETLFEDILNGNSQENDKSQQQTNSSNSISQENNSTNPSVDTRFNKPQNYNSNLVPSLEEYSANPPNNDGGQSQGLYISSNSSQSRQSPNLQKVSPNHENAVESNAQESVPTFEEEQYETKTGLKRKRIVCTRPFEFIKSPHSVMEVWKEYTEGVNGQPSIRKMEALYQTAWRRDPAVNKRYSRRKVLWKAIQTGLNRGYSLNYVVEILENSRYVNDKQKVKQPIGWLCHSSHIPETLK
# Test: PBM E-score (8-mer binding enrichment) (E-score (-0.5 to 0.5)); higher = stronger / more preferred TF binding; most listed sequences are background and not binding sites
# Details: protein concentration: 200 nM; construct: GST-full length
# Method in brief: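 Full-length yeast transcription factors or their DNA-binding domains, GST-tagged and expressed with PURExpress, were applied at about 100-200 nM to universal all-10-mer Agilent arrays. These arrays had been made double-stranded by primer extension on fresh or once-stripped slides. Detection used fluorescent anti-GST, normalisation used masliner, and E-scores for ungapped eight-base words pooled with reverse complements came from the Universal PBM Analysis Suite.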
row,Sequence,PBM E-score
1,AGCGGATG,0.00745
2,ATACACGG,0.0626
3,TGATAGCA,-0.00624
4,CTGTCCGC,0.114
5,AAATGATA,0.211
6,ATGTAAAT,0.0942
7,AGGGGCCC,-0.298
8,GCACAAGC,-0.0494
9,CTAATTAG,0.25
10,CCGAAGGA,-0.0508
11,AGAGCTAC,-0.119
12,ATTCAGAA,0.0541
13,CGGCACTC,-0.138
14,CACGATCC,0.0298
15,ACTATTCA,0.108
16,CGGTGCAC,-0.156
17,CTATAGCC,-0.228
18,AAGCGCTT,0.312
19,CCGTATAC,-0.0814
20,CCGAGACA,0.319
21,CATGGCCC,-0.249
22,ATCCGGTG,-0.0397
23,TCCGTTAA,0.204
24,TAGGTTAA,0.0373
25,CAACCGCC,-0.177

row,Sequence,PBM E-score
1,CTCCAGAC,0.0625
2,CGGTTCCC,-0.0131
3,CTTATGTC,0.374
4,CAAGCGGC,0.0281
5,GACGCGGC,0.132
6,ACTTGACA,-0.0312
7,CTCTTTAC,-0.199
8,CGACGTTA,0.181
9,ACTACGGC,-0.223
10,TCACTTAA,0.134
11,AAGCCCCT,-0.285
12,ATATTGAC,-0.0639
13,GTAATACA,0.0721
14,ACCATTAG,0.02
15,GTTGTCAA,0.0641
16,GCACATGA,-0.0829
17,CCCGGTCA,-0.0171
18,GGAATACC,-0.0823
19,AGAAAACC,0.0822
20,GCTATTAA,0.0937
21,ATTCTGTC,0.127
22,ACATAGCT,-0.0112
23,GTCTCTGA,0.0973
24,CGCTTTAA,-0.0635
25,AATGTCAC,0.381

row,Sequence,PBM E-score
1,ACTCGAAA,-0.036
2,ACGTCCGC,0.14
3,TACATCTA,0.105
4,GAGAGACC,-0.125
5,ACAACCGT,-0.0303
6,TTGACCAA,0.079
7,ACATGGCC,0.136
8,ACAACCTA,0.0651
9,CGTAACAA,0.0345
10,CGAAGGAG,-0.207
11,ACGAGTCG,-0.0461
12,ATAAACTA,0.0785
13,TCTCCTCA,-0.078
14,AAGTAAGC,0.149
15,CCGAGGTC,0.0121
16,ATCCTTAA,-0.126
17,GGAGTCTA,-0.254
18,ATATCTCA,0.253
19,GAGGCTGA,-0.175
20,GGCGAGTA,-0.0351
21,GTGACTAA,0.133
22,GAGTCCGA,0.243
23,GCCTAAGA,0.0504
24,ACCCACGA,0.052
25,TACGAGTA,0.118

row,Sequence,PBM E-score
1,CTCCAGCC,-0.227
2,CTCGTCCC,0.228
3,ATTATTTG,0.0904
4,ACCTTTCG,-0.0277
5,GATATAAC,-0.0351
6,GTGGGGGA,-0.141
7,CTTCCCAA,0.107
8,CGATTGGC,0.046
9,ATCACCCG,-0.17
10,GTTCTGGA,0.133
11,ACAGGTAA,0.027
12,AATGGATG,-0.0531
13,AATGTTTC,0.105
14,ACACAACA,0.0342
15,AAGAGTGC,-0.0251
16,ACAAGTAT,0.138
17,AATCGCCA,-0.24
18,AGTGGTAT,0.034
19,TCCCGAAA,0.0124
20,TCAAGGAA,-0.0495
21,AGACTTAC,-0.0717
22,ATGCTCCG,-0.0598
23,ACCACCCA,0.0438
24,AATTTGGT,0.173
25,GTACGCCA,-0.123

row,Sequence,PBM E-score
1,ACTAAACG,0.0401
2,CTGACTAC,-0.104
3,AACGACGA,0.108
4,GAGAGCTA,-0.0637
5,GAAGATGA,-0.158
6,ACCGTACA,0.00044
7,CCCATGAG,-0.124
8,ATGAATGA,0.0538
9,GGAAAGCC,0.019
10,ATTGGCCA,-0.0723
11,TGGTGCAA,-0.249
12,GTCCCTTA,0.28
13,GACCTCCA,-0.203
14,TCCGGCGA,0.173
15,AACGCGGC,-0.0726
16,CCGGACAA,0.452
17,GGAGTATA,-0.0705
18,CGGTCTTC,-0.114
19,GTGATCGA,0.118
20,GGGAGGAA,-0.178
21,TAGCGGCA,-0.0593
22,AAACCAGC,0.052
23,GAAGTGGA,-0.0423
24,CGATTCCG,-0.0607
25,AGCTTACA,0.0561

row,Sequence,PBM E-score
1,CTCGTAGA,-0.167
2,AAACTATC,-0.0577
3,ACATCATC,-0.0738
4,CTGGGTGC,-0.345
5,GGCCAATA,-0.0111
6,ACCGGCGA,0.0718
7,ACTGTGAT,-0.162
8,CTCTATAA,-0.0269
9,CATATAGG,-0.0261
10,TACTGACA,0.3
11,ATAAGCAC,-0.0395
12,TGCCAACA,0.0784
13,AGTTAGTG,0.114
14,AAATAGAT,0.197
15,TATCGGGA,0.178
16,ACTTTTGG,0.289
17,AAACCGTG,-0.0562
18,CCGTTACA,0.0399
19,CCTGCAGC,-0.166
20,GCCGCATA,0.074
21,TATCCATA,0.0627
22,AGGCCCAA,-0.0893
23,TTATAGAA,0.0791
24,CGCCACAG,-0.173
25,ATTGAAAG,0.119

row,Sequence,PBM E-score
1,CCGAAATA,0.249
2,CCTGTTTC,-0.0725
3,AGCAGTCA,-0.0636
4,ACATCCCT,0.114
5,TGTAGGAA,0.0189
6,AGGTTGAA,0.0649
7,CACGTCCC,-3e-05
8,AAGAGCTG,-0.0703
9,AAATACCG,0.189
10,ATATTTCA,0.193
11,AACAAGGG,-0.0134
12,AAACAAAC,0.192
13,AAGATCTG,0.115
14,CTCCCAAA,0.012
15,CGCATCAA,0.0022
16,AAAATGGT,0.193
17,CAAATCAG,0.113
18,GGGGCCCA,-0.294
19,TACGACGA,0.0849
20,GGCTCATA,-0.134
21,CATTCCGA,0.213
22,CTGATAGC,-0.203
